From the RNAGym collection of RNA variant scans (doi:10.7554/elife.90254)
The source gives no read counts; variants with many changes may rest on few reads.

B1: LINE1-full (parent)
chain: UACGUAGGUGGUUUUCCCCUGAUAGUGCUAAGGGGGCCUGGAAGUUUGGACUGGGCAGAGCUCAACACAGCGUGGCAAAGUGGCUGUGGCUAGACUGCCUCUCUGGAUUCCUCGUCACUCAGCAGGGCAUCUCUGAGAGAAAUGCC

Variants of: B1
Assay: self-cleavage, relative activity (ratio to wild type); higher = more cleavage; in vitro, sequencing; the parent is a self-cleaving ribozyme

Variant	self-cleavage
UACGUAGGUGGUUUUCCCCUGAUAGUACUAAGGGGGCCUGGAAGUUUGGACUGGGCAGGGCUCAAUUCAGCGUGGCAAAGUGGCUGUGGCUAGACUGCCUCUCUGGAUUCCUCGUCACUCAGCAGGGCAUCUCUGAGAGAAAUGCC [G27A A59G C66U A67U]	0.07
UACGUAGGUGGUUUUCCCCUGAUAGUACUAAGGGGGCCUGGAAGUUUGGACUGGGCAGGGCUCAACACAGCGAGGCAAAGUGGCUGUGGCUAGACUGCCUCUCUGGAUUCCUCGUCACUCAGCAGGGCAUCUCUGGGAGAAAUGCC [G27A A59G U73A A136G]	0.14
UACGUAGGUGGUUUUCCCCUGAUAGUACUAAGGGGGCCUGGAAGUUUGGACUGGGCAGUGCUCAACACAGCGUGGCAAAGUGGCUGUGGCUAGACUGCCUCUCCGGAUUCCUCGUCACUCAGCAGGGCAUCUCUGAGAGAAAUGCC [G27A A59U U104C]	0.59
UACGUAGGUGGUUUUCCCCUGAUAGUACUAAGGGGGCCUGGAAGUUUGGACUGGGCAGAGCUCGACACAGCGCGGCAAAGUGGCUGUGGCUAGACUGCCUCUCUGGAUUCCUCGUCACUCAGCAGGGCAUCUCUGAGAGAAAUGCC [G27A A64G U73C]	0.24
UACGUAGGUGGUUUUCCCCUGAUAGUACUAAGGGGGCCUGGAAGUUUGGACUGGGCAGAGCUCAGCACAGCGUGGCAAAGUGGCUGUGGCUAGACUGCCUCUCUGGAUUCCUCGUCACUCGGCAGGGCAUCUCUGAGAGAGAUGAC [G27A A65G A121G A141G C145A]	0
UACGUAGGUGGUUUUCCCCUGAUAGUACUAAGGGGGCCUGGAAGUUUGGACUGGGCAGAGCUCAACACAGCGUGGCGAAGUGGCUGCGGCUAGACUGCCUCUCUGGAUUCCUCGUCACUCAGCAGGGCAUCUCUGAGAGAAAUGCC [G27A A77G U87C]	0.2
UACGUAGGUGGUUUUCCCCUGAUAGUACUAAGGGGGCCUGGAAGUUUGGACUGGGCAGAGCUCAACACAGCGUGGCAUAGUGGCUGUGGCUAGACUGCCUCUCUGGAUUCCUCGUCACUCAGCGGGGCAUCUCUGAGAGAAAUGCC [G27A A78U A124G]	0.84
UACGUAGGUGGUUUUCCCCUGAUAGUACUAAGGGGGCCUGGAAGUUUGGACUGGGCAGAGCUCAACACAGCGUGGCAAAGUGGCUGUGGCUAGGCUGCCUCUCUGGAUUCCUCGUCACUCAGCAGGGCAUCUCUGAGAGAAGUGCC [G27A A94G A142G]	0.09
UACGUAGGUGGUUUUCCCCUGAUAGUACUAAGGGGGCCUGGAAGUUUGGACUGGGCAGAGCUCAACACAGCGUGGCAAAGUGGCUGUGGCUAGGCUGCCUCUCUGGAUUCCUCGUCACUCAGCAGGACAUCUCUGAGAGAAAUGCC [G27A A94G G127A]	0.15
UACGUAGGUGGUUUUCCCCUGAUAGUACUAAGGGGGCCUGGAAGUUUGGACUGGGCAGAGCUCAACACAGCGUGGCAAAGUGGCUGUGGCUAGACUGCCUCUCUGGAUUCCUCGUCACUCAGCAGGGCGUCUCUGGGAGAAAUGCC [G27A A129G A136G]	2.32
UACGUAGGUGGUUUUCCCCUGAUAGUACUAAGAGGGCCUGGGAGUUUGGACUGGGCAGAGCUCAACACAGCGUGGCAAAGUGGCUGUGGCUAGACAGCCUCUCUGGAUUCCUCGUCACUCAGCAGGGCAUCUCUGAGAGAAAUGCC [G27A G33A A42G U96A]	0.03
UACGUAGGUGGUUUUCCCCUGAUAGUACUAAGGAGGCCUGGAAGUUUGGACUGGGCAGAGCUCAACACAGCGUGGCAAAGUGGCUGUGGCUAGACUGCCUCUCUGGAUUCCUCGUCACCCAGCAGGGCAUCUCUGAGAGAAAUGCC [G27A G34A U119C]	0.9
UACGUAGGUGGUUUUCCCCUGAUAGUACUAAGGGGGCCUUGAAGUUUGGACUGGGCAGGGCUCAACACAGCGUGGCAAAGUGGCUGUGGCUAGACUGCCUCUCUGGAUUCCUCGUCACUCAGCAGGGCAUCUCUGAGAGAAAUGCC [G27A G40U A59G]	0.01
UACGUAGGUGGUUUUCCCCUGAUAGUACCAAGGGGGCCUGGAGGUUUGGACUGGGCAGAGCUCAACACAGCGUGGCAAAGUGGCUGUGGCUAGACUGCCUCUCUGGAUUCCUCGUCACUCAGCAGGGCAUCUCUGAGAGGAAUGCC [G27A U29C A43G A140G]	1.06
UACGUAGGUGGUUUUCCCCUGAUAGUACUAAGGGGGCCUGGAAGUCUGGACUGGGCAGAGCUCAACACAGCGUGGCAAAGUGGCUGUGGCUUGACUGUCUCUCUGGAUUCCUCGUCACUCAGCAGGGCAUCUCUGAGAGAAAUGCC [G27A U46C A92U C98U]	0.2
UACGUAGGUGGUUUUCCCCUGAUAGUUCUAAGGGGGCCUGGAAGUUUGGGCUGGGCAGAGCUCAACACAGCGUGGCAAAGUGGCUGUGGCUAGACUGCCUCUCUGGACUCCUCGUCACUCAGCAGGGCAUCUCUGAGAGAAAUGCC [G27U A50G U108C]	1.56
UACGUAGGUGGUUUUCCCCUGAUAGUUCUAAGGGGGCCUGGAAGUUUGGUCUGGGCAGAGCUCAUCACAGCGCGGCAAAGUGGCUGUGGCUAGACUGCCUCUCUGGAUUCCUCGUCACUCAGCAGGGCAUCUCUGAGAGAAAUGCC [G27U A50U A65U U73C]	0.03
UACGUAGGUGGUUUUCCCCUGAUAGUUCUAAGGGGGCCUGGAAGUUUGGACUGGGCAGUGCUCAACACAGCGUGGCAAAGUGGCUGUGGCUAGACUGCCUCUCUGGAUUCCUCGUCACUCAGCAGGGCAUCUCUGAGAGAAACGCC [G27U A59U U143C]	0.78
UACGUAGGUGGUUUUCCCCUGAUAGUUCUAAGAGGGCCUGGAAGUUUGGACUGGGCAGAGCUCAACACAGCGUGGCAAAGUGGCUGUGGCUAGACUGCCUCUCUGGAUACCUCGUCACUCAGCAGGUCAUCUCUGAGAGAAAUGCC [G27U G33A U109A G127U]	0.8
UACGUAGGUGGUUUUCCCCUGAUAGUGAUGAAGGGGCCUGGAAGUUUGGACUGGGCAGAGCUCAACACAGCGUGGCAAAGUGGCUGUGGCUAGACUGCCUCUCUGGAUUCCUCGUCACUCAGCAGGGCAUCUCCGAGAGAAAUGCC [C28A A30G G32A U134C]	0.78

Variant	self-cleavage
UACGUAGGUGGUUUUCCCCUGAUAGUGAUAAGGGGGCCUGGGAGUUUGGACUGGGCAGAGCUCAACACAGCGUGGCAAAGUGGCUGUGGUUAGACUGCCUCUCUGGAUUCCUCGUCACCCAGCAGGGCAUCUCUGAGAGAAAUGCC [C28A A42G C90U U119C]	0.07
UACGUAGGUGGUUUUCCCCUGAUAGUGAUAAGGGGGCCUGGAAGUUUGGACUGGGCAGAGCUCAACACAGCGUGGCGAGGUGGCUGUAGCUAGACUGCCUCUCUGGAUUCCUCGUCACUCAGCAGGGCACCUCCGAGAGAAGUGCC [C28A A77G A79G G88A U130C U134C A142G]	0.09
UACGUAGGUGGUUUUCCCCUGAUAGUGAUAAGGGGGCCUGGAAGUUUGGACUGGGCAGAGCUCAACACAGCGUGGCAAAGUGGCUGUGGCUAGACUGCCUCUCUGGGUCCCUCGUCACUCAGCAGGGCAUCUCUGAGAGAAAUGCC [C28A A107G U109C]	0.61
UACGUAGGUGGUUUUCCCCUGAUAGUGAUAAGGGUGCCUGGAAGUUUGGACUGGGCAGAGCUCAACACAGCGUGGCAAAGUGGCUGUGGCUAGACUGCCUCUCUGGAUUCCUCGUCACUCAGCAGGGCAUCUCAGAGAGAAAUGCC [C28A G35U U134A]	0.57
UACGUAGGUGGUUUUCCCCUGAUAGUGAUAAGGGGGCCGGGAAGUUUGGACUGGGCAGAGCUCAACACAGCGUGGCAAAGUGGCUGUGGCUAGACUGCCUCUCUGGGUUCCUCGUCACUCAGCAGGGCACCUCUGAGAGAAAUGCC [C28A U39G A107G U130C]	1.27
UACGUAGGUGGUUUUCCCCUGAUAGUGAUAAGGGGGCCUGGAAGUCUGGACUGGGCAGAGCUCAACACAGCGUGGCAAAGUGGCUGUGGCUAGACUGCCUCUCUGGAUUCCUCGUCACUCAGCAGGGCAUCUCUGAGAGAAACGCC [C28A U46C U143C]	1.19
UACGUAGGUGGUUUUCCCCUGAUAGUGAUAAGGGGGCCUGGAAGUUUGGACUGGGCAGAGCUCAACACAGCGCGGCUAAGUGACCGUGGCUAGACUGCCUCUCUGGAUUCCUCGUCACUCAGCAAGGCAUCUCUGAGAGAAAUGCC [C28A U73C A77U G83A U85C G125A]	0.06
UACGUAGGUGGUUUUCCCCUGAUAGUGAUAAGGGGGCCUGGAAGUUUGGACUGGGCAGAGCUCAACACAGCGUGGCAAAGUGGCUGUGGCAAGACUGCCUCUCUGGAUUCCUCGUCACUCAGCAGGGCAUCUCUGAGAGAGAUGCC [C28A U91A A141G]	0.41
UACGUAGGUGGUUUUCCCCUGAUAGUGGUAAGGGGGCCUGGAGGUUUGGGCUGGGCAGAGCUCAACACAGCGUGGCAAAGUGGCUGUGGCUAGACUGCCUCUCCGGAUUCCUCGUCACUCAGCAGGGCAUCUCUGAGAGAAAUGCC [C28G A43G A50G U104C]	0
UACGUAGGUGGUUUUCCCCUGAUAGUGGUAAGGGGGCCUGGAAGUUUGGACUGGGCAGAGCUCAACACAGCGUGGCAGUGUGGCUGUGGCUAGACUGCCUCUCUGGAUUCCUCGUCACUCAGCAGGGCAUCUCUGUGAGAAACGCC [C28G A78G A79U A136U U143C]	0.86
UACGUAGGUGGUUUUCCCCUGAUAGUGGUAAGGGGGCCUGGAAGUUUGGACUGGGCAGAGCUCAACACAGCGUGGCAAAGUGGCUGUGGCUUGACUGCCUCUCUGGAUUCCUCGUCACUCAGCCGGGCAUCUCUGAGAGAAACGCC [C28G A92U A124C U143C]	0.18
UACGUAGGUGGUUUUCCCCUGAUAGUGGUAAGGGGGCCUGGAAGUUUGGACUGGGCAGAGCUCAACACAGCGAGGCAAAGUGGCUGUGGCUAGACUGCCUCUCUGGAUUCCUCGUCACUCAGCAGGGCAUCUCUGAGGGAAAUGCC [C28G U73A A138G]	1.85
UACGUAGGUGGUUUUCCCCUGAUAGUGGUAAGGGGGCCUGGAAGUUUGGACUGGGCAGAGCUCAACACAGCGUGGCAAAGUGGCAGUGGCUAGACUGCCUCUCUGGAUUCCUCGUCACUCAGCAGGGCAUCUCUGAGAGAGAUGCC [C28G U85A A141G]	0.08
UACGUAGGUGGUUUUCCCCUGAUAGUGGUAAGGGGGCCUGGAAGUUUGGACUGGGCAGAGCUCAACACAGCGUGGCAAAGUGGCCGUGGCUAGACUGCCUCUCUGGAUUCCCCGUCACUCAGCAGGGCAUCUCUGAGAGAAGUGCC [C28G U85C U112C A142G]	0
UACGUAGGUGGUUUUCCCCUGAUAGUGUUAAGGGGGCCUGGAAGUUUGGACUGGGCAGAGCUCAACGCAGCGUGGCAAAGUGGCUGUGGCCAGACUGCCUCUCUGGAUUCCUCGUCACUCAGCAGGGCACCUCUGAGAGAAAUGCC [C28U A67G U91C U130C]	0
UACGUAGGUGGUUUUCCCCUGAUAGUGUUAAGGGGGCCUGGAAGUUUGGACUGGGCAGAGCUCAACACAGCGUGGCAAAGUGGCUGUGGCUAGACUGCCUCUCUGGAUUCCUCGUCUCUCAGCAGGGCAUCUCUGAGAGAAACGCC [C28U A117U U143C]	1.24
UACGUAGGUGGUUUUCCCCUGAUAGUGUUAAGGGGACCUGGAAGUUUGGACUGGGCAGAGCUCAACACAGCGUGGCAAAGUGGCUGUGGCCAGACUGCCUCUCUGGAUUCCUCGUCACUCAGCAGGGCAUCUCUGAGAGAAAUGCC [C28U G36A U91C]	0.52
UACGUAGGUGGUUUUCCCCUGAUAGUGUUAAGGGGGCCUGGAAGUAUGGACUGGGCAGAGCUCAGCACAGCGUGGCAAAGUGGCUGUGGCUAGACUGCCUCUCUGGAUUCCUCGCCACUCAGCAGGGCAUCUCUGAGAGAAAUGCC [C28U U46A A65G U115C]	0.1
UACGUAGGUGGUUUUCCCCUGAUAGUGUUAAGGGGGCCUGGAAGUCUGGACUGGGCAGAGCUCAACACAGCGAGGCAAAGUGGCUGUGGCUAGACUGCCUCUCUGGAUUCCUCGCCUCUCAGCAGGGCAUCUCUGAGAGAAAUGCC [C28U U46C U73A U115C A117U]	2.03
